Assay results as given in PubChem BioAssay (Tox21).
“And” between values parts separate entries of the source, which are not always exact repeats. Equal entries are not always repeated. Inconclusive results, whose numbers are uncertain, are shown with a selection of clear calls. For some assays here: A potency beside an inconclusive call is a rough fit, not a confirmed value. More than one record can exist for a structure, and the calls need not agree. The source made the active and inactive calls. Unless noted, calls come from the whole dose curve; as a rule, active = well fitted curve in the direction sought with a large enough effect in the repeat runs; inconclusive = weak or mixed curves; inactive = no such curve, though single readings can be large; an effect the other way counts as inactive or inconclusive.

Experiments:
[1] = qHTS assay to identify aromatase inhibitors - cell viability counter screen (AID 743084); conditions: MCF-7 aro ERE viability, CellTiter-Fluor, 24 h; activity change, negative = cytotoxicity: at 70.3 µM (top of the series);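 note: cells stimulated with testosterone during compound exposure; nearly all actives have a fitted effect of over 55% in size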
[2] = molecular target: Aryl hydrocarbon receptor (Homo sapiens) (UniProt P35869); test: qHTS assay to identify small molecule that activate the aryl hydrocarbon receptor (AhR) signaling pathway (AID 743085); note: nearly all actives have a fitted effect of over 15% in size
Chain of UniProt P35869 (P35869 whole entry, looked up): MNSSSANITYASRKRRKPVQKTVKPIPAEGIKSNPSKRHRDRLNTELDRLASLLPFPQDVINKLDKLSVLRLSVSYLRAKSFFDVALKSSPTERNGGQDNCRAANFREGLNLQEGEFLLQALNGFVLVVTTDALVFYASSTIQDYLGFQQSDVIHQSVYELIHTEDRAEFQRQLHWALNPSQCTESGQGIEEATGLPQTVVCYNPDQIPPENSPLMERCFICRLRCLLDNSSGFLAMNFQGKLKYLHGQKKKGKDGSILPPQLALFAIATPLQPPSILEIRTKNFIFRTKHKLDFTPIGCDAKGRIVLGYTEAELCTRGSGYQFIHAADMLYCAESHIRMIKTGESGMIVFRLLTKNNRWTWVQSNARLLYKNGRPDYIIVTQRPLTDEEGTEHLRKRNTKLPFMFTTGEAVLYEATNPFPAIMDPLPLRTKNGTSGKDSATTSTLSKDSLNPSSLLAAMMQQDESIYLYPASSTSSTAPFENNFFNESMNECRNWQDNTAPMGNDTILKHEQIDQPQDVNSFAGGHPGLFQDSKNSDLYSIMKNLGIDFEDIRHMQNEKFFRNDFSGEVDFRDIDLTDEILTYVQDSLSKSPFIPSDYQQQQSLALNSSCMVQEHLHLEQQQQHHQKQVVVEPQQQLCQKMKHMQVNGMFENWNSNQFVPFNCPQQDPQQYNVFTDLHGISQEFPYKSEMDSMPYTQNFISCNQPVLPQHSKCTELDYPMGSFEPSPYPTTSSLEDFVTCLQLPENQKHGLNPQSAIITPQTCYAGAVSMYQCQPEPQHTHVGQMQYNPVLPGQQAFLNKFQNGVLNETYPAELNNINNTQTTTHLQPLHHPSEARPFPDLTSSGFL
Procedure, shortened: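 HepG2 cells (HG2L7.5c1) stably carrying a firefly luciferase reporter driven by 20 dioxin responsive elements were exposed to compound for 24 h at 37C after a 5 h settling period; luminescence rise (ONE-Glo) indicated activation.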

[3] = qHTS assay to identify small molecule that activate the aryl hydrocarbon receptor (AhR) signaling pathway - cell viability counter screen (AID 743086); note: nearly all actives have a fitted effect of over 45% in size
Procedure, shortened: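 HepG2-AhR-luc (HG2L7.5c1) cells, 4000/well, treated 24 h at 37 C with compound; viability measured as CellTiter-Fluor fluorescence after 30 min in the same wells as the luciferase read.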

[4] = molecular target: Peroxisome proliferator-activated receptor gamma (Homo sapiens) (UniProt P37231); test: qHTS assay to identify small molecule agonists of the peroxisome proliferator-activated receptor gamma (PPARg) signaling pathway (AID 743094; active = well fitted activation curve with a large enough effect in the signal ratio in the repeat runs, not every such curve was filed as active; inconclusive = weak or mixed curves, or effect the other way; inactive = no such curve, though single readings can be large or run the other way; the % refers to the signal ratio; for activation: % is set by controls: 0 for no effect and ±100 for the full control effect); conditions: HEK293H PPARg-UAS-bla, beta-lactamase FRET ratio, 17 h; activation: at 57 µM (top of the series) unless noted
Chain of UniProt P37231 (P37231 whole entry, looked up): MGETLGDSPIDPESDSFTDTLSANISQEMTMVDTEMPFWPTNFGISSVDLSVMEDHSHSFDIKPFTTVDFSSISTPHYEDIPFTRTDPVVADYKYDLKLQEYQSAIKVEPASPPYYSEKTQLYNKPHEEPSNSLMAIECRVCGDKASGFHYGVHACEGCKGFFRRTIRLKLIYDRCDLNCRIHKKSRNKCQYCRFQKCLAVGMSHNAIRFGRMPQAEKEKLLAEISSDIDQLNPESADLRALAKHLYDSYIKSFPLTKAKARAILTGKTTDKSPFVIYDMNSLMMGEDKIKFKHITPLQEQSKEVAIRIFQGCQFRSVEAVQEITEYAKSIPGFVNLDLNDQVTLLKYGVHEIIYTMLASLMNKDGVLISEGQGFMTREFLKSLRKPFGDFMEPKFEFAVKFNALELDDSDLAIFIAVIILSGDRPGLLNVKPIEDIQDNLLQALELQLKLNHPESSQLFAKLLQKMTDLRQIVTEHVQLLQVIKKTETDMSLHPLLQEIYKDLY
Procedure, shortened: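 Following 5 h plating at 37C, PPARg-bla HEK293H cells receive compound or DMSO for 17 h; fluorescence intensity is recorded after LiveBLAzer B/G loading for 1 h at room temperature.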

[5] = molecular target: Peroxisome proliferator-activated receptor gamma (Homo sapiens) (UniProt P37231); test: qHTS assay to identify small molecule antagonists of the peroxisome proliferator-activated receptor gamma (PPARg) signaling pathway (AID 743191; calls by dose curve; note: nearly all actives have a fitted effect of over 30% in size; for ratio activity, negative = inhibition: % is set by controls: 0 for no effect and ±100 for the full control effect); conditions: HEK293H PPARg-UAS-bla, beta-lactamase ratio, antagonist, 17 h; ratio activity, negative = inhibition: at 62.6 µM (top of the series) unless noted
Procedure, shortened: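 GeneBLAzer PPARg UAS-bla HEK293H cells, 5 h post-plating, exposed to compounds 17 h at 37C. LiveBLAzer B/G FRET substrate added for 1 h at room temperature; beta-lactamase reporter read by fluorescence intensity.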

[6] = molecular target: Peroxisome proliferator-activated receptor delta (Homo sapiens) (UniProt Q03181); test: qHTS assay to identify small molecule agonists of the peroxisome proliferator-activated receptor delta (PPARd) signaling pathway (AID 743212; calls by dose curve; for activation: % is set by controls: 0 for no effect and ±100 for the full control effect); conditions: HEK293H PPARd-UAS-bla, beta-lactamase FRET ratio, 17 h; activation: at 62.6 µM (top of the series) unless noted
Chain of UniProt Q03181 (Q03181 whole entry, looked up): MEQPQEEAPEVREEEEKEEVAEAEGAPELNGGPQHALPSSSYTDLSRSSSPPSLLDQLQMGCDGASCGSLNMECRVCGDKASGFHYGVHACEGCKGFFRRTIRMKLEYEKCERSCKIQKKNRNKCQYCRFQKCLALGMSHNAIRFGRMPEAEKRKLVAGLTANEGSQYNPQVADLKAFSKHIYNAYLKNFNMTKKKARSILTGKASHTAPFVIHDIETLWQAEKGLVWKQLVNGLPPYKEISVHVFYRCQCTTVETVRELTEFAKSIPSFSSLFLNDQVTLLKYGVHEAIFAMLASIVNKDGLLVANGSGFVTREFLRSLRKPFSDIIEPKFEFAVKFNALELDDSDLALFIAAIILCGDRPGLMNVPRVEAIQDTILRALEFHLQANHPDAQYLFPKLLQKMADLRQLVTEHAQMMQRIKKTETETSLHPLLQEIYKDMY
Procedure, shortened: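 GeneBLAzer UAS-bla HEK293H cells carrying a PPARδ construct were exposed to compounds at 37 °C. Beta-lactamase activity was read by FRET fluorescence after 2 h at room temperature with LiveBLAzer B/G substrate.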

[7] = molecular target: Peroxisome proliferator-activated receptor delta (Homo sapiens) (UniProt Q03181); test: qHTS assay to identify small molecule antagonists of the peroxisome proliferator-activated receptor delta (PPARd) signaling pathway (AID 743215; active = well fitted inhibition curve with a large enough effect in the signal ratio in the repeat runs, not every such curve was filed as active; inconclusive = weak or mixed curves, or effect the other way; inactive = no such curve, though single readings can be large or run the other way; the % refers to the signal ratio;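 note: cells stimulated with agonist L165041 at 300 nM final during compound exposure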; for ratio activity, negative = inhibition: % is set by controls: 0 for no effect and ±100 for the full control effect); conditions: HEK293H PPARd-UAS-bla, beta-lactamase FRET ratio, antagonist, 17 h; ratio activity, negative = inhibition: at 62 µM (top of the series) unless noted
Procedure, shortened: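 With L165041 present at 300 nM final, compounds were incubated 17 h at 37 C on PPARd UAS-bla HEK293H cells. A FRET-based beta-lactamase substrate was then applied for 2 h at room temperature and fluorescence intensity recorded.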

[8] = molecular target: Bile acid receptor (Homo sapiens) (UniProt Q96RI1); test: qHTS assay to identify small molecule antagonists of the farnesoid-X-receptor (FXR) signaling pathway (AID 743217; active = well fitted inhibition curve with a large enough effect in the signal ratio in the repeat runs, not every such curve was filed as active; inconclusive = weak or mixed curves, or effect the other way; inactive = no such curve, though single readings can be large or run the other way; the % refers to the signal ratio); conditions: HEK293T FXR-UAS-bla, beta-lactamase ratio, CDCA-stimulated, 16 h; activity change, negative = inhibition: at 62.6 µM (top of the series) unless noted
Chain of UniProt Q96RI1 (Q96RI1 whole entry, looked up): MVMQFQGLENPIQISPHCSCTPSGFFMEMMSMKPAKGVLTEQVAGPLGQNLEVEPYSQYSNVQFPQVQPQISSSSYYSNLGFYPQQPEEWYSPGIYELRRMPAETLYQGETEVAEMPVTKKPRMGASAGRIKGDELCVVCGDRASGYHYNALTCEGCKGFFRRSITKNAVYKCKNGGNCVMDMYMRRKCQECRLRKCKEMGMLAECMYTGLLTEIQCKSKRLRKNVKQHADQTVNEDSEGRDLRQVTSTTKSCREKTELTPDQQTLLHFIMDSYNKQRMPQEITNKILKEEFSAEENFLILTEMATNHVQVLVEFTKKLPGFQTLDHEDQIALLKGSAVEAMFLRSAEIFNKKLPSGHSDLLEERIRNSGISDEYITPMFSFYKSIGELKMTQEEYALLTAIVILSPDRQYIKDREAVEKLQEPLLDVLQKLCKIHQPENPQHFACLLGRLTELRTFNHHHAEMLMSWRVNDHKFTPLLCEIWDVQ
Procedure, shortened: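 In this cell-based antagonist screen, inhibition of CDCA-driven (50 uM final) UAS-beta-lactamase expression in HEK 293T cells was measured by FRET fluorescence following 16 h compound exposure at 37 °C.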

[9] = qHTS assay to identify small molecule agonists of the farnesoid-X-receptor (FXR) signaling pathway - cell viability counter screen (AID 743218); conditions: FXR-bla HEK293T viability, CellTiter-Glo luminescence, 16 h; viability change, negative = cytotoxic: at 62.6 µM (top of the series) unless noted; note: nearly all actives have a fitted effect of over 45% in size
Procedure, shortened: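 After 16 h at 37 C with test compounds, FXR-bla HEK 293T cells were given LiveBLAzer B/G substrate for 2 h at RT and then CellTiter-Glo; luminescence was taken after 30 min.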

[10] = qHTS assay to identify small molecule antagonists of the farnesoid-X-receptor (FXR) signaling pathway - cell viability counter screen (AID 743221; active = well fitted cell-killing curve with a large enough effect in the repeat runs, not every such curve was filed as active; inconclusive = weak or mixed curves, or effect the other way; inactive = no such curve, though single readings can be large or run the other way; note: nearly all actives have a fitted effect of over 50% in size); conditions: FXR-bla HEK293T viability, CellTiter-Glo luminescence, 16 h; activity change, negative = cytotoxicity: at 62.6 µM (top of the series)
Procedure, shortened: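 FXR-UAS-bla HEK 293T cells were treated with test compounds plus chenodeoxycholic acid (50 uM final) for 16 h at 37 C. Cell viability in the same wells was then read as CellTiter-Glo luminescence after 30 min at room temperature.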

[11] = molecular target: Vitamin D3 receptor (Homo sapiens) (UniProt P11473); test: qHTS assay to identify small molecule agonists of the vitamin D receptor (VDR) signaling pathway (AID 743222; calls by dose curve); conditions: HEK293T VDR-UAS-bla, beta-lactamase FRET ratio, 16 h; activation: at 63.5 µM (top of the series) unless noted
Chain of UniProt P11473 (P11473 whole entry, looked up): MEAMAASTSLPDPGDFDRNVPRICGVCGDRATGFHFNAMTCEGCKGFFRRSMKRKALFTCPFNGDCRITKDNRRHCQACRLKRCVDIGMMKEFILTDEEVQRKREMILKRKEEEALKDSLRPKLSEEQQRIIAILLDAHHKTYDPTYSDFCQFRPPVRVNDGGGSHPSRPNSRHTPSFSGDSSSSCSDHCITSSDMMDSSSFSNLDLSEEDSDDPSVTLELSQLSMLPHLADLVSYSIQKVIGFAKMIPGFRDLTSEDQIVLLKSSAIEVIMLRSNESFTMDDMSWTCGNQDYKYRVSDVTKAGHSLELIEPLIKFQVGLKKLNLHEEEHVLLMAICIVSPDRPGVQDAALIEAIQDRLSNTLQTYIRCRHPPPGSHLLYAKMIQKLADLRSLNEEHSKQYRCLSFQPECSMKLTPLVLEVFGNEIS
Procedure, shortened: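 VDR-bla cells were seeded, left 4 h, treated with compounds in DMSO for 16 h, incubated 2 h at RT with B/G FRET substrate, and read for fluorescence.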

[12] = qHTS assay to identify small molecule antagonists of the peroxisome proliferator-activated receptor gamma (PPARg) signaling pathway - cell viability counter screen (AID 743194); conditions: PPARg-bla HEK293H viability, CellTiter-Glo luminescence, 17 h, co-treated with 50 nM rosiglitazone; activity change, negative = cytotoxicity: at 62.6 µM (top of the series); note: nearly all actives have a fitted effect of over 55% in size
Procedure, shortened: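 Cytotoxicity counter screen in PPARg-bla HEK293H cells, same wells as reporter assay. Compounds plus 50 nM rosiglitazone (final) for 17 h at 37 C, then viability read by CellTiter-Glo luminescence.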

[13] = qHTS assay for small molecule agonists of the antioxidant response element (ARE) signaling pathway (AID 743202; active = well fitted activation curve with a large enough effect in the signal ratio in the repeat runs, not every such curve was filed as active; inconclusive = weak or mixed curves, or effect the other way; inactive = no such curve, though single readings can be large or run the other way; the % refers to the signal ratio); conditions: HepG2 ARE-bla reporter, beta-lactamase FRET, 16 h; activation: at 73.3 µM (top of the series) unless noted
Procedure, shortened: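 ARE-bla HepG2 cells (beta-lactamase reporter under the antioxidant response element), plated 5 hours, then exposed to compounds 16 hours at 37 C. LiveBLAzer B/G FRET substrate added for 2 hours at room temperature; fluorescence intensity read.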

[14] = qHTS assay for small molecule activators of the heat shock response signaling pathway (AID 743210; active = well fitted activation curve with a large enough effect in the signal ratio in the repeat runs, with a control signal flat, not every such curve was filed as active; inconclusive = weak or mixed curves; the % refers to the signal ratio); conditions: HeLa HSE-bla reporter, beta-lactamase ratio, 5 h; activation: at 62.6 µM (top of the series)
Procedure, shortened: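 HSE-bla HeLa cells (beta-lactamase reporter under heat shock response elements), plated overnight, then exposed to compounds 5 h at 37 C; LiveBLAzer B/G FRET substrate added, 2.5 h at room temperature, fluorescence intensity read.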

[15] = qHTS assay to identify small molecule agonists of the peroxisome proliferator-activated receptor delta (PPARd) signaling pathway - cell viability counter screen (AID 743211); conditions: PPARd-bla HEK293H viability, CellTiter-Glo luminescence, 17 h; activity change, negative = cytotoxicity: at 62.6 µM (top of the series); note: nearly all actives have a fitted effect of over 55% in size
Procedure, shortened: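 PPARd-bla HEK293H cells (UAS-beta-lactamase reporter) were treated with compounds for 17 h at 37 C. Viability was then read in the same wells by CellTiter-Glo luminescence after 30 min at room temperature.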

[16] = qHTS assay to identify small molecule antagonists of the peroxisome proliferator-activated receptor delta (PPARd) signaling pathway - cell viability counter screen (AID 743213); conditions: PPARd-bla HEK293H viability, CellTiter-Glo luminescence, 17 h; viability change, negative = cytotoxic: at 62 µM (top of the series) unless noted; note: nearly all actives have a fitted effect of over 50% in size
Procedure, shortened: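 HEK293H PPARd UAS-bla cells, 5 h pre-incubation, compound + L165041 300 nM final, 17 h 37 C; B/G FRET substrate 2 h RT; then CellTiter-Glo 30 min RT, luminescence.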

[17] = molecular target: Bile acid receptor (Homo sapiens) (UniProt Q96RI1); test: qHTS assay to identify small molecule agonists of the farnesoid-X-receptor (FXR) signaling pathway (AID 743220; active = well fitted activation curve with a large enough effect in the signal ratio in the repeat runs, not every such curve was filed as active; inconclusive = weak or mixed curves, or effect the other way; the % refers to the signal ratio); conditions: HEK293T FXR-UAS-bla, beta-lactamase FRET ratio, 16 h; activation: at 62.6 µM (top of the series) unless noted
Procedure, shortened: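 Beta-lactamase reporter under UAS control in GeneBLAzer FXR HEK 293T cells (5000/well) measured with LiveBLAzer FRET substrate after 2 h at room temperature. Compound exposure lasted 16 h at 37C.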

[18] = molecular target: Vitamin D3 receptor (Homo sapiens) (UniProt P11473); test: qHTS assay to identify small molecule antagonists of the vitamin D receptor (VDR) signaling pathway (AID 743223; active = well fitted inhibition curve with a large enough effect in the signal ratio in the repeat runs, not every such curve was filed as active; inconclusive = weak or mixed curves, or effect the other way; inactive = no such curve, though single readings can be large or run the other way; the % refers to the signal ratio); conditions: VDR-UAS-bla HEK293T, beta-lactamase FRET ratio, 16 h; activity change, negative = inhibition: at 61 µM (top of the series) unless noted
Procedure, shortened: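 VDR-bla cells were plated, incubated 4 h at 37C, then given compound and 1alpha,25-dihydroxyvitamin D3 (3 nM final). After 16 h at 37C, LiveBLAzer B/G FRET substrate was added for 2 h at room temperature and fluorescence read.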

[19] = qHTS assay for small molecule activators of the heat shock response signaling pathway - cell viability counter screen (AID 743209); conditions: HSE-bla HeLa viability, CellTiter-Glo luminescence, 5 h; activity change, negative = cytotoxicity: at 62.6 µM (top of the series); note: nearly all actives have a fitted effect of over 50% in size
Procedure, shortened: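 Counter screen for cytotoxicity in HeLa HSE-bla reporter cells. Treatment was 5 h at 37 C; viability was detected by luminescent ATP assay (CellTiter-Glo) in the same wells as the beta-lactamase read.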
Potency is the fitted concentration of half-maximal effect; tags give direction and shape of the fitted curve or compound fluorescence and quenching.

With `CCCOC(=O)c1cc(O)c(O)c(O)c1` the Potency [1] was inconclusive: 29.8 µM [cytotoxic, partial curve, poor fit] and inconclusive: 38.4 µM [cytotoxic, partial curve] and inconclusive: 68.6 µM [cytotoxic, partial curve, poor fit], the Potency [2] was inconclusive: 24.2 µM [activator, single point] and the Potency [3] was inconclusive: 29.8 µM [falling, partial curve, poor fit]. For the same compound, the activation [4] was inconclusive: -16.1%, the Potency [5] was inconclusive: 17.4 µM [inhibitor, full curve] and the ratio activity, negative = inhibition [5] was inconclusive: -58.2%. The activation [6] was inconclusive: 1.9%, the ratio activity, negative = inhibition [7] was inconclusive: 3.91% and the activity change, negative = inhibition [8] was inconclusive: -22.7% and inconclusive: -1.39%. For the same compound, the Potency [9] was inconclusive: 54.9 µM [cytotoxic, single point], the Potency [10] was inconclusive: 34.7 µM [falling, partial curve, poor fit] and the Potency [11] was inconclusive: 61.4 µM [rising, partial curve, poor fit].

With `OCc1c[nH]c2ccccc12` the Potency [1] was inconclusive: 54.5 µM [cytotoxic, partial curve, poor fit], the Potency [3] was inconclusive: 68.6 µM and the activation [4] was inconclusive: -10.8%. For the same compound, the Potency [5] was active: 12.3 µM, the Potency [12] was inconclusive: 4.9 µM [cytotoxic, full curve, poor fit] and the Potency [13] was inconclusive: 24.3 µM. The Potency [14] was inconclusive: 33.1 µM, the Potency [15] was inconclusive: 24.5 µM [cytotoxic, partial curve, poor fit] and the Potency [6] was inconclusive: 24.3 µM [rising, partial curve]. For the same compound, the Potency [16] was inconclusive: 30.6 µM [cytotoxic, full curve], the ratio activity, negative = inhibition [7] was inconclusive: -25.7% and the Potency [8] was inconclusive: 59.2 µM [inhibitor]. The Potency [9] was inconclusive: 0.0035 µM [rising, full curve, poor fit], the Potency [17] was inconclusive: 68.6 µM and the activation [11] was inconclusive: 7.57% [at 81.1 µM]. For the same compound, the Potency [18] was inconclusive: 0.0015 µM [fluorescent].

For `CCN(CC)C(=O)c1cc(S(=O)(=O)Cc2ccccc2)c(N2CCC(c3ccccc3)CC2)cc1N(CC)CCN(C)C`, the Potency [1] was inconclusive: 29.8 µM [cytotoxic, single point] and inconclusive: 27 µM [cytotoxic, partial curve, poor fit], the Potency [3] was inconclusive: 21.4 µM and the Potency [4] was inconclusive: 30.1 µM [falling, single point]. For the same compound, the activation [4] was inconclusive: -15.3% [at 26.2 µM], the Potency [5] was inconclusive: 21.6 µM [inhibitor, single point] and the Potency [12] was inconclusive: 19.3 µM [cytotoxic, single point]. For the same compound, the Potency [13] was inconclusive: 27 µM [rising, single point], the Potency [19] was inconclusive: 0.0767 µM [rising, partial curve, poor fit] and the Potency [15] was active: 21.6 µM. For the same compound, the Potency [16] was active: 6.84 µM, the Potency [7] was active: 17.2 µM and the Potency [9] was inconclusive: 19.3 µM [cytotoxic, single point]. The Potency [10] was inconclusive: 17.2 µM [falling, single point] and the Potency [18] was inconclusive: 19.3 µM [single point].

In the case of `CN1CCN(C2Cc3ccccc3Sc3ccc(Cl)cc32)CC1` (stereo unspecified), the Potency [1] was inconclusive: 29.8 µM [cytotoxic, partial curve, poor fit], the Potency [3] was inconclusive: 29.8 µM [falling, partial curve] and the Potency [4] was inconclusive: 15.1 µM [rising, partial curve, poor fit]. For the same compound, the Potency [5] was active: 29.8 µM, the Potency [12] was active: 29.8 µM and the Potency [13] was inconclusive: 33.5 µM [falling, single point]. The Potency [19] was inconclusive: 26.6 µM [cytotoxic], the Potency [14] was inconclusive: 29.8 µM [rising, partial curve, poor fit] and the Potency [16] was inconclusive: 29.8 µM [cytotoxic, partial curve, poor fit]. For the same compound, the Potency [8] was inconclusive: 29.8 µM, the Potency [9] was active: 26.6 µM and the Potency [17] was “inactive”. The Potency [10] was active: 29.8 µM and the activation [11] was inconclusive: -26.2%.
